Source: the RNAGym collection of RNA variant scans (doi:10.7554/elife.90254)
The source gives no read counts; variants with many changes may rest on few reads.

B1: LINE1-mini (parent)
chain: GGCAGAGCUCAACACAGCGUGGCAAAGUGGCUGUGGCUAGACUGCC

Variants of: B1
Assay: self-cleavage, relative activity (ratio to wild type); higher = more cleavage; in vitro, sequencing; the parent is a self-cleaving ribozyme
GGCAGAGCUCAACAAAGCUUGGCAAAAUGGCUGUGGUUAGACUGCC showed a self-cleavage of 0.02. With GGCAGAGCUCAACAAAGGGUGGCAAUGUGGCUGUGGAAAGUCAGCA the self-cleavage was 0. In the case of GGCAGAGCUCAACAAAACGUGGCAAACUGGAUGUGGCAAGAAUACC, the self-cleavage is reported as 0. Work on GGCAGAGCUCAACAAAGCGUAGCAAAGUGGCUGUGGCUACACUGCC yielded a self-cleavage of 0.02. GGCAGAGCUCAACAAAUCGUGGCAAAAUGUCUGUGGCUAGACUGUG gave a self-cleavage of 0.03. GGCAGAGCUCAACAAAGCGUGGACAAGUGGCUGUGGCUAGACUGCC showed a self-cleavage of 0.04. GGCAGAGCUCAACAAACUGUGGAAAAGUGGCUGUGGCUAGACUGCC showed a self-cleavage of 0.05. In the case of GGCAGAGCUCAACAAAGCGUGACAAAGUGGCUGUCGCUAGGCUGCC, the self-cleavage is reported as 0.05. In the case of GGCAGAGCUCAACAAAGCAUGGCAAAGUGGCUCUGGCUAGACUGCC, the self-cleavage is reported as 0.03. GGCAGAGCUCAACAAAGCCUGGCAAAGUGGCUGUUGCUAGACUGCC gave a self-cleavage of 0.03. Variant GGCAGAGCUCAACAAAGGGUGGCAAAGUGGCUGUGGCUAUACUGCC has a self-cleavage of 0.04. GGCAGAGCUCAACAAAUCGUGGCAAAGGAGCUGUGGCCAGACUGCC gave a self-cleavage of 0.02. Work on GGCAGAGCUCAACAAAGCGUGGCAAACUGGCUGUGGCUUCUCUGCC yielded a self-cleavage of 0.09. For GGCAGAGCUCAACAAAGUGCGGCAAAGUUGCUGCGGCUAGACUGCC, the self-cleavage was 0.02. In the case of GGCAGAGCUCAACAAACCGUGGCAAAGUGGCUGUUGCUAGACUGGC, the self-cleavage is reported as 0.05. Work on GGCAGAGCUCAACAAAGCGUUGCAAAGUGGCUUUGGCUAGACUGCC yielded a self-cleavage of 1.03. For GGCAGAGCUCAACAAAGCGUUGCAAAGUGGCUUUGGAUAGACUGCC, the self-cleavage was 0.08. In the case of GGCAGAGCUCAACAAAGGGUGGCAAAGUGGCUGUGGCUAGUCUGCC, the self-cleavage is reported as 0.01. Work on GGCAGAGCUCAACAAAGCUUGGCAAAGUGGCUGUGCCUAGCCUGCC yielded a self-cleavage of 0.02. In the case of GGCAGAGCUCAACAAAGCGUGGCAACGUGGAUGUCGAUAGACUGCC, the self-cleavage is reported as 0.16. Variant GGCAGAGCUCAACAAAGUGUGGCAAAGUGGUUGUGGCUAGACUGCC has a self-cleavage of 0. Variant GGCAGAGCUCAACAAAGCGUGCCAAUGUGGCUGUGGCUAGACUGCC has a self-cleavage of 0.05. Variant GGCAGAGCUCAACAAAGCGUUGCAAAGUGCCUGUGGCUAGACUGCC has a self-cleavage of 0.04. GGCAGAGCUCAACAAAACGUCGCAAAGUGGCUGUGGCUAGACUGCA showed a self-cleavage of 0.03. Work on GGCAGAGCUCAACAAACAGUGGCAAAGUGGCUGUGGCUAGACUGCC yielded a self-cleavage of 0.02. Work on GGCAGAGCUCAACAAAGCGUGGCAAAGUGGAUGUGGGUCGACUGCC yielded a self-cleavage of 0.02. GGCAGAGCUCAACAAAGCCUGGCAAAGUGGCGGGGGCUAGACUGCC showed a self-cleavage of 0. In the case of GGCAGAGCUCAACAAAGCAUGGCAAAGUGGCUGGGCCUAGACUGCC, the self-cleavage is reported as 0.01. For GGCAGAGCUCAACAAAGCGUGGCAAAGUGGUUGAGGCUAAAUUGCC, the self-cleavage was 0.01. In the case of GGCAGAGCUCAACAAAGGGUGGCAAAGUGGCUGUGGCUAGACUGCA, the self-cleavage is reported as 0.01. Variant GGCAGAGCUCAACAAAGCGUCGCAAAGUGCCUGUGGAUAGACAGCC has a self-cleavage of 0.03. Work on GGCAGAGCUCAACAAAGCGUGGUAAAGUGGAUGUGGCUAGACUGCC yielded a self-cleavage of 0.02. With GGCAGAGCUCAACAAAGCUUGGCAAAGUGUCUGUGGCUAACCUGCC the self-cleavage was 0.13. Variant GGCAGAGCUCAACAAAGCGUGCCAAAGUGGAUGUGGCUAGACUGCC has a self-cleavage of 0.04. Variant GGCAGAGCUCAACAAAGCGUGGCAAACUGGUUGUGGCUAGACUGCC has a self-cleavage of 0.02. Variant GGCAGAGCUCAACAAAGAGUAGCAAAGUGGCUGUGGCUAGACUGCC has a self-cleavage of 0.03. GGCAGAGCUCAACAAAGCGUGGCAAAGUGGCUGUGGUUAGACUGGC gave a self-cleavage of 0.05. GGCAGAGCUCAACAAAGCUUGGCAAAGUGGCUGUGGCUAGCCUGCC showed a self-cleavage of 0.05. GGCAGAGCUCAACAAACCGUGGCAAAUUCGCUGUGGCUAGACUGCC showed a self-cleavage of 0.43. With GGCAGAGCUCAACAAAGCGUGACAAAGUGGCUGUGGGUAGACUGCC the self-cleavage was 0.03. Variant GGCAGAGCUCAACAAAGUGUGGCAAUGUGGCUGUGGCUAGACUGCC has a self-cleavage of 0.04. GGCAGAGCUCAACAAAGCGUGUCAAAGUGGCUGUGGCUAGACUCUC showed a self-cleavage of 0.09. GGCAGAGCUCAACAAAUCGUGGCAAAGUGGCUGUGGCUAAACUGCC gave a self-cleavage of 0.1. For GGCAGAGCUCAACAAAUCGUGGCGAAGUGGCUGUGGCUAGACUGCC, the self-cleavage was 0.16. Variant GGCAGAGCUCAACAAAGCGUUUCAAAGUGGCUGUGGCUAGACUGCC has a self-cleavage of 0.78. GGCAGAGCUCAACAAACCGUGGCAAAGUGGCUGUGGCCAGACUGCC gave a self-cleavage of 0.08. GGCAGAGCUCAACAAAGCGUGGCAAAUAGGCUGUGGCUAGACUGCC gave a self-cleavage of 0.31. GGCAGAGCUCAACAAAGCGUUCCAAAGUGGCUAUGGCUAGACUGCC gave a self-cleavage of 0.07. GGCAGAGCUCAACAAAGCGUGGCAAAGUGGCUGUGGACAGACUGCC gave a self-cleavage of 0.03. With GGCAGAGCUCAACAAAGCAUGGCAAAGUGGCUGUGGCCAGACUGCC the self-cleavage was 0.04. GGCAGAGCUCAACAAAGCCUGGCAAAGUGGCUAUGGCUAGACUGCC showed a self-cleavage of 0.08. In the case of GGCAGAGCUCAACAAAGCGUGGCAAAGUGGUUGUGGAUAGACUGCC, the self-cleavage is reported as 0.1. GGCAGAGCUCAACAAAGCGUGGUAAAGUGACUGUGGCUAGACUGCC showed a self-cleavage of 0.12. For GGCAGAGCUCAACAAAGCAUGGAAAAGUGGCUGUGGCUAGCCUGCC, the self-cleavage was 0.06. GGCAGAGCUCAACAAAGCGUGGGGAAGUGGCUGUGGCUAGACUGAC showed a self-cleavage of 0.01. GGCAGAGCUCAACAAAUCGUGGCAAAGUGGCUGUGGCAAGACUGCC showed a self-cleavage of 0.12.
